Laboratory results reported in paper PMC8968644.
No constants are given. Whether binding was seen depends on the method and setting. Binding seen in cells or lysates may run through a third protein. Some entries that bind do so weakly or less than the wild type.

T1: AGGF1-C1 (C-terminal deletion mutant 1 of AGGF1) (UniProt Q8N302)
T1 sequence: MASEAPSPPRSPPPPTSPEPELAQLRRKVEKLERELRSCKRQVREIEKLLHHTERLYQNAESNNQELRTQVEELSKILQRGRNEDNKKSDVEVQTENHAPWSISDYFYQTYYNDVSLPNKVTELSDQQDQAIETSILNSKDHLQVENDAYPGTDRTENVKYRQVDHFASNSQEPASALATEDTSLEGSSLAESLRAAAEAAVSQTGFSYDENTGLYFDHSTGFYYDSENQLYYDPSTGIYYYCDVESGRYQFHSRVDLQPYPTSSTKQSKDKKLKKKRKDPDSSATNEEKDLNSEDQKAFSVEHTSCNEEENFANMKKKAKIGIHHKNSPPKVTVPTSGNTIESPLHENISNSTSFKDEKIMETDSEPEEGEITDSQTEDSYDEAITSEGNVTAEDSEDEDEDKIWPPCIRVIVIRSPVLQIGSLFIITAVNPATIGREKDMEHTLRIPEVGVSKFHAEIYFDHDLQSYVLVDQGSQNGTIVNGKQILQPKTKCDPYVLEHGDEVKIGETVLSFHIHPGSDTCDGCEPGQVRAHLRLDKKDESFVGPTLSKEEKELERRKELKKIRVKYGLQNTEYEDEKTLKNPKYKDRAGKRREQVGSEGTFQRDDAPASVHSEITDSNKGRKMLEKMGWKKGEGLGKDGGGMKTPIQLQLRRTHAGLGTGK

T2: AGGF1-C3 (C-terminal deletion mutant 3 of AGGF1) (UniProt Q8N302)
T2 sequence: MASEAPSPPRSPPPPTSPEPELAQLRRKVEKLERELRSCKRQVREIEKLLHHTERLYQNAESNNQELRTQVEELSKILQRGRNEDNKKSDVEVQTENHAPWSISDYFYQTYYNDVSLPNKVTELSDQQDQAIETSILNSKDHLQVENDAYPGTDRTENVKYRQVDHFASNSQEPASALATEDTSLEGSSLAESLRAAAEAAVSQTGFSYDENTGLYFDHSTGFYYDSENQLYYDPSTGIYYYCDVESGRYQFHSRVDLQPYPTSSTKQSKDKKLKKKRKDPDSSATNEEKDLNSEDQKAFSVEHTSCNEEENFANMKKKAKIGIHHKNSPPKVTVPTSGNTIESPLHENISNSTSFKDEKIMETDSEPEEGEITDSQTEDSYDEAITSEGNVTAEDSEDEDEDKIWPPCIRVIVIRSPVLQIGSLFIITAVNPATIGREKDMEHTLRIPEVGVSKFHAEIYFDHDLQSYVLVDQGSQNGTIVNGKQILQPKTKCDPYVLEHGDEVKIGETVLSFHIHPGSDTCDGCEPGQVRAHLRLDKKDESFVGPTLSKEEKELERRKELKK

T3: Angiogenic factor with G patch and FHA domains 1 (AGGF1), wild type (UniProt Q8N302)
T3 sequence: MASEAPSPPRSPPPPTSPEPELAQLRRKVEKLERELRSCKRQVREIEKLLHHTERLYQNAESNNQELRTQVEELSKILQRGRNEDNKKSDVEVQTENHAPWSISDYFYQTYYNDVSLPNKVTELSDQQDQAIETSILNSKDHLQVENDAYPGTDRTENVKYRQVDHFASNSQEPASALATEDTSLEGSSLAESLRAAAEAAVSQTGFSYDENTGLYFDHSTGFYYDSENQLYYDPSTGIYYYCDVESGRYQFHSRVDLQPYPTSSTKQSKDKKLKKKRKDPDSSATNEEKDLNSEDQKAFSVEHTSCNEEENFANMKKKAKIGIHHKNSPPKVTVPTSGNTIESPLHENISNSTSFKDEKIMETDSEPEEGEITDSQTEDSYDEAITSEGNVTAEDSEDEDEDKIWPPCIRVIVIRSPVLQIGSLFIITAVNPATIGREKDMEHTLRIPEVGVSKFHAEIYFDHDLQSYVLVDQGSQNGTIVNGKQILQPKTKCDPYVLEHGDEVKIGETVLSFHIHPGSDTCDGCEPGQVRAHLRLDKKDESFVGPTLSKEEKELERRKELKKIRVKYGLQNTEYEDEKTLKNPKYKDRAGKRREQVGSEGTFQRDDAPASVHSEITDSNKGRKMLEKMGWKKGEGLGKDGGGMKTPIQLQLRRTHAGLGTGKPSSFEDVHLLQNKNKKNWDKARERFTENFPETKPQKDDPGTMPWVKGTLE

T4: AGGF1-C2 (C-terminal deletion mutant 2 of AGGF1) (UniProt Q8N302)
T4 sequence: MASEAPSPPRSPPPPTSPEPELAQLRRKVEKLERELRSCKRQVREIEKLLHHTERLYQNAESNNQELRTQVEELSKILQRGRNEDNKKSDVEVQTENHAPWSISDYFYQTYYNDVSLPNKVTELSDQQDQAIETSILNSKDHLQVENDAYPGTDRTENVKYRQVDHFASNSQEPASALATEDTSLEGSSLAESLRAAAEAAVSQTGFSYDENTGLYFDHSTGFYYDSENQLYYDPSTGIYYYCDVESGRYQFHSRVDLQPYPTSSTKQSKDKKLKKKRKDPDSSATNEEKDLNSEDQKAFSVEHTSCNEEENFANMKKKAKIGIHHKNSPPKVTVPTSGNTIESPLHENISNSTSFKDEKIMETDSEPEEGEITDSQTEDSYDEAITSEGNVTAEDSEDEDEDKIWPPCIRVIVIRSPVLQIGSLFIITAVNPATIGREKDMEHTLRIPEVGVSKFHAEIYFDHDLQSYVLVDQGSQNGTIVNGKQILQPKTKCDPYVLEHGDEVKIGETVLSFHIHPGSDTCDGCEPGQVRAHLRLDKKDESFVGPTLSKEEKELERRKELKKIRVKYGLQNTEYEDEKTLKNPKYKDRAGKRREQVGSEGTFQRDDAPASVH


Tests used:
Assay in all cases: co-IP; HeLa cells cotransfected with the two expression plasmids for 48 h, lysed; lysate preabsorbed with Protein A/G PLUS-agarose; 1.5 μg immunoprecipitation antibody (anti-AGGF1; reciprocal with anti-integrin for the wild type) or anti-mouse IgG overnight at 4 °C; Western blot for the partner
[1] = target: T1, AGGF1-C1 (C-terminal deletion mutant 1 of AGGF1)
[2] = target: T2, AGGF1-C3 (C-terminal deletion mutant 3 of AGGF1)
[3] = target: T3, Angiogenic factor with G patch and FHA domains 1 (AGGF1), wild type
[4] = target: T4, AGGF1-C2 (C-terminal deletion mutant 2 of AGGF1)

| binding [1] | binding [2] | binding [3] | binding [4] | Binder |
| --- | --- | --- | --- | --- |
| binds | no binding | binds | binds | Integrin α7 (ITGA7) (receptor, UniProt Q13683 34-1181) FNLDVMGALRKEGEPGSLFGFSVALHRQLQPRPQSWLLVGAPQALALPGQQANRTGGLFACPLSLEETDCYRVDIDQGADMQKESKENQWLGVSVRSQGPGGKIVTCAHRYEARQRVDQILETRDMIGRCFVLSQDLAIRDELDGGEWKFCEGRPQGHEQFGFCQQGTAAAFSPDSHYLLFGAPGTYNWKGTARVELCAQGSADLAHLDDGPYEAGGEKEQDPRLIPVPANSYFGLLFVTNIDSSDPDQLVYKTLDPADRLPGPAGDLALNSYLGFSIDSGKGLVRAEELSFVAGAPRANHKGAVVILRKDSASRLVPEVMLSGERLTSGFGYSLAVADLNSDGWPDLIVGAPYFFERQEELGGAVYVYLNQGGHWAGISPLRLCGSPDSMFGISLAVLGDLNQDGFPDIAVGAPFDGDGKVFIYHGSSLGVVAKPSQVLEGEAVGIKSFGYSLSGSLDMDGNQYPDLLVGSLADTAVLFRARPILHVSHEVSIAPRSIDLEQPNCAGGHSVCVDLRVCFSYIAVPSSYSPTVALDYVLDADTDRRLRGQVPRVTFLSRNLEEPKHQASGTVWLKHQHDRVCGDAMFQLQENVKDKLRAIVVTLSYSLQTPRLRRQAPGQGLPPVAPILNAHQPSTQRAEIHFLKQGCGEDKICQSNLQLVRARFCTRVSDTEFQPLPMDVDGTTALFALSGQPVIGLELMVTNLPSDPAQPQADGDDAHEAQLLVMLPDSLHYSGVRALDPAEKPLCLSNENASHVECELGNPMKRGAQVTFYLILSTSGISIETTELEVELLLATISEQELHPVSARARVFIELPLSIAGMAIPQQLFFSGVVRGERAMQSERDVGSKVKYEVTVSNQGQSLRTLGSAFLNIMWPHEIANGKWLLYPMQVELEGGQGPGQKGLCSPRPNILHLDVDSRDRRRRELEPPEQQEPGERQEPSMSWWPVSSAEKKKNITLDCARGTANCVVFSCPLYSFDRAAVLHVWGRLWNSTFLEEYSAVKSLEVIVRANITVKSSIKNLMLRDASTVIPVMVYLDPMAVVAEGVPWWVILLAVLAGLLVLALLVLLLWKMGFFKRAKHPEATVPQYHAVKIPREDRQQFKEEKTGTILRNNWGSPRREGPDAHPILAADGHPELGPDGHPGPGTA |
| – | – | no binding | – | Integrin α8 (ITGA8) (receptor, UniProt P53708 39-1063) FNLDVEKLTVYSGPKGSYFGYAVDFHIPDARTASVLVGAPKANTSQPDIVEGGAVYYCPWPAEGSAQCRQIPFDTTNNRKIRVNGTKEPIEFKSNQWFGATVKAHKGKVVACAPLYHWRTLKPTPEKDPVGTCYVAIQNFSAYAEFSPCRNSNADPEGQGYCQAGFSLDFYKNGDLIVGGPGSFYWQGQVITASVADIIANYSFKDILRKLAGEKQTEVAPASYDDSYLGYSVAAGEFTGDSQQELVAGIPRGAQNFGYVSIINSTDMTFIQNFTGEQMASYFGYTVVVSDVNSDGLDDVLVGAPLFMEREFESNPREVGQIYLYLQVSSLLFRDPQILTGTETFGRFGSAMAHLGDLNQDGYNDIAIGVPFAGKDQRGKVLIYNGNKDGLNTKPSQVLQGVWASHAVPSGFGFTLRGDSDIDKNDYPDLIVGAFGTGKVAVYRARPVVTVDAQLLLHPMIINLENKTCQVPDSMTSAACFSLRVCASVTGQSIANTIVLMAEVQLDSLKQKGAIKRTLFLDNHQAHRVFPLVIKRQKSHQCQDFIVYLRDETEFRDKLSPINISLNYSLDESTFKEGLEVKPILNYYRENIVSEQAHILVDCGEDNLCVPDLKLSARPDKHQVIIGDENHLMLIINARNEGEGAYEAELFVMIPEEADYVGIERNNKGFRPLSCEYKMENVTRMVVCDLGNPMVSGTNYSLGLRFAVPRLEKTNMSINFDLQIRSSNKDNPDSNFVSLQINITAVAQVEIRGVSHPPQIVLPIHNWEPEEEPHKEEEVGPLVEHIYELHNIGPSTISDTILEVGWPFSARDEFLLYIFHIQTLGPLQCQPNPNINPQDIKPAASPEDTPELSAFLRNSTIPHLVRKRDVHVVEFHRQSPAKILNCTNIECLQISCAVGRLEGGESAVLKVRSRLWAHTFLQRKNDPYALASLVSFEVKKMPYTDQPAKLPEGSIVIKTSVIWATPNVSFSIPLWVIILAILLGLLVLAILTLALWKCGFFDRARPPQEDMTDREQLTNDKTPEA |
